For one assay, the target named is T1, GST-CGN (1015–1203) (UniProt Q9P2M7).
T1 sequence: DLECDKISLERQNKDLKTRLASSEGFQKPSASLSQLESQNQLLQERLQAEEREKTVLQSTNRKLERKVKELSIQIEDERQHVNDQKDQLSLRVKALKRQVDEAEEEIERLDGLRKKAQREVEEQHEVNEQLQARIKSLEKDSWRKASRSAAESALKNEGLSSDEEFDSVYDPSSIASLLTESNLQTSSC
Description: pull-down; affinity purified GST-tagged CGN or CGNL1 fragments as baits on magnetic beads; HA-tagged full-length NM2 preys in HEK lysates; IB with anti-HA (Fig. 1 C, D); only the target purified.

For another assay, the target named is T2, GST-CGN (1–226) (UniProt Q9P2M7).
T2 sequence: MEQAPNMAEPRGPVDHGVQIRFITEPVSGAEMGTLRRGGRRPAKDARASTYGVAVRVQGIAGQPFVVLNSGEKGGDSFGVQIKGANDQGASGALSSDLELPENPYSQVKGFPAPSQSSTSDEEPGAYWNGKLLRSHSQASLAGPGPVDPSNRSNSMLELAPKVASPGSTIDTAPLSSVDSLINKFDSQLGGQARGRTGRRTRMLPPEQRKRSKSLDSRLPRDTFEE
Described as above.

In assay [1] the target is T3, GST-CGNL1 (884–1302), Rod2 bait of CGNL1 (UniProt Q0VF96).
T3 sequence: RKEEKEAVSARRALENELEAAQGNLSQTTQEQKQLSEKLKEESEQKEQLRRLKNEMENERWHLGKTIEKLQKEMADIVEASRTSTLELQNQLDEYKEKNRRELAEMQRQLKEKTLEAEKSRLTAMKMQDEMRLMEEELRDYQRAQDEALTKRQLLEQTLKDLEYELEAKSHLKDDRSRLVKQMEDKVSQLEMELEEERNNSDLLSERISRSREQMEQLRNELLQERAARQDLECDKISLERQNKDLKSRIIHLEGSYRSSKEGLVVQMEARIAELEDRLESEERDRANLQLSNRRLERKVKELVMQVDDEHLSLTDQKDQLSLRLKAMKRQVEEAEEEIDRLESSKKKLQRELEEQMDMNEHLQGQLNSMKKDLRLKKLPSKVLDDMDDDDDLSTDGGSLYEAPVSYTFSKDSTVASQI
Described as above.

The target of assay [2] is T4, GST-hCGN (667–1203), Rod2 bait of CGN (human) (UniProt Q9P2M7).
T4 sequence: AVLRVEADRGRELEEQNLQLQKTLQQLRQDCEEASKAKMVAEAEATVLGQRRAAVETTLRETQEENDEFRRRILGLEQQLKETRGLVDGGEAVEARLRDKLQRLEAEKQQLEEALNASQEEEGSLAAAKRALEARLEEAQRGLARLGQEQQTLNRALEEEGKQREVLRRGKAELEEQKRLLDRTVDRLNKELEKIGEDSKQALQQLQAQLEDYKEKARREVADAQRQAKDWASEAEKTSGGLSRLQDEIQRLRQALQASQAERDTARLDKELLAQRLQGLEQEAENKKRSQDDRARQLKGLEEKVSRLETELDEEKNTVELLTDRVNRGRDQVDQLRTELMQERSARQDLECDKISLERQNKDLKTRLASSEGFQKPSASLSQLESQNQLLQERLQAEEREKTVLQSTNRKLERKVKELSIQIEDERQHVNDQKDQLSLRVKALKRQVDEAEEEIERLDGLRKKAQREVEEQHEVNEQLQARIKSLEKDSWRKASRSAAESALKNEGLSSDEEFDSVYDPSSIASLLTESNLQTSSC
Described as above.

Assay [3] has as its target T5, GST-hCGNL1 (421–603) (human) (UniProt Q0VF96).
T5 sequence: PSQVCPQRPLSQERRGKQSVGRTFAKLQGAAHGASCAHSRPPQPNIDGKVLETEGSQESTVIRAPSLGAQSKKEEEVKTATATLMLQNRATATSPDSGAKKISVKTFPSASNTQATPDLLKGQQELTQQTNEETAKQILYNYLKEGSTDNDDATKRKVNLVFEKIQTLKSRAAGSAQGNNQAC
Described as above.

In assay [4] the target is T6, GST-cNM2A (1461–1710) (canis (dog)) (UniProt Q258K2).
T6 sequence: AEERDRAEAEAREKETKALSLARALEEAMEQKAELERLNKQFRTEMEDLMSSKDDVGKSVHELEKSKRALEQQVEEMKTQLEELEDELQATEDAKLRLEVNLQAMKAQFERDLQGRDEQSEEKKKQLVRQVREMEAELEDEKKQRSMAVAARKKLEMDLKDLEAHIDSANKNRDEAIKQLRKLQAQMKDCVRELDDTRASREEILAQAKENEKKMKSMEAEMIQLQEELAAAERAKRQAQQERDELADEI
Description: pull-down; affinity purified GST-tagged cNM2A, cNM2B, cNM2C rod fragments as baits; His-tagged full-length CGN and CGNL1 purified from baculovirus-infected insect cells as preys; IB with anti-His (Fig. 1 H–J); both purified.

Assay [5] addresses T7, GST-cNM2A (1461–1960) (canis (dog)) (UniProt Q258K2).
T7 sequence: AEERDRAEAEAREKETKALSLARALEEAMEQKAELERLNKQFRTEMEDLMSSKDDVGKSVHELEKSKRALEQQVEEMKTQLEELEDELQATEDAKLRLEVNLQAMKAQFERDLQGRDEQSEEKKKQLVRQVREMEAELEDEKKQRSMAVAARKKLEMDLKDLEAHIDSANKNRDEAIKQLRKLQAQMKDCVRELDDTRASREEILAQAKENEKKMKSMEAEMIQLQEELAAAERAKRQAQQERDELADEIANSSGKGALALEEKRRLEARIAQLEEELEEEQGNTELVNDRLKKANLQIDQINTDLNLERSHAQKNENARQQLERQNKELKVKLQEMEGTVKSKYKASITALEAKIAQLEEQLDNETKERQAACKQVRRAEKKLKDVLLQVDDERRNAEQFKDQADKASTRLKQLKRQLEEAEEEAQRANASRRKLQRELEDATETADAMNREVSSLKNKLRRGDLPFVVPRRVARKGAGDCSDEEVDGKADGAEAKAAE
The assay is described as above.

Assay [6] addresses T8, GST-cNM2A (1711–1960) (canis (dog)) (UniProt Q258K2).
T8 sequence: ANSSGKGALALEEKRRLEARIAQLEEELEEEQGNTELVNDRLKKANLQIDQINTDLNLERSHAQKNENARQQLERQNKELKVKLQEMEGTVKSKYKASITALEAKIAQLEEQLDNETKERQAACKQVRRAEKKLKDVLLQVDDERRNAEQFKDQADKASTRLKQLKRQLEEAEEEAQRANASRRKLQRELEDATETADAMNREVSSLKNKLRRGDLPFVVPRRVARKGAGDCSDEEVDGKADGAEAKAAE
Described as above.

Results are given in words; binding and its absence hold for the method and conditions named. For part of these data: Binding seen in cells or lysates may run through a third protein. Some entries that bind do so weakly or less than the wild type. Sequences can lack the tags named with a protein.

“HA-hNM2B (full-length nonmuscle myosin-2B heavy chain) (from UniProt P35580 1-1976)”: the binding result with GST-CGN (1015–1203) is recorded as “binds”; with GST-CGN (1–226) it was “binds”; in assay [1] it was “binds”; in assay [2], “binds”; in assay [3], “binds weakly”.

B1: full-length hCGNL1 (10xHis-2xStrep), purified (protein, UniProt Q0VF96 1-1302)
chain: MELYFGEYQHVQQEYGVHLRLASDDTQKSRSSQNSKAGSYGVSIRVQGIDGHPYIVLNNTERCLAGTSFSENGPPFPPPVINNLPLHSSNGSVPKENSEELQLPENPYAQPSPIRNLKQPLLHEGKNGVLDRKDGSVKPSHLLNFQRHPELLQPYDPEKNELNLQNHQPSESNWLKTLTEEGINNKKPWTCFPKPSNSQPTSPSLEDPAKSGVTAIRLCSSVVIEDPKKQTSVCVNVQSCTKERVGEEALFTSGRPLTAHSPHAHPETKKTRPDVLPFRRQDSAGPVLDGARSRRSSSSSTTPTSANSLYRFLLDDQECAIHADNVNRHENRRYIPFLPGTGRDIDTGSIPGVDQLIEKFDQKPGLQRRGRSGKRNRINTDDRKRSRSVDSAFPFGLQGNSEYLIEFSRNLGKSSEHLLRPSQVCPQRPLSQERRGKQSVGRTFAKLQGAAHGASCAHSRPPQPNIDGKVLETEGSQESTVIRAPSLGAQSKKEEEVKTATATLMLQNRATATSPDSGAKKISVKTFPSASNTQATPDLLKGQQELTQQTNEETAKQILYNYLKEGSTDNDDATKRKVNLVFEKIQTLKSRAAGSAQGNNQACNSTSEVKDLLEQKSKLTIEVAELQRQLQLEVKNQQNIKEERERMRANLEELRSQHNEKVEENSTLQQRLEESEGELRKNLEELFQVKMEREQHQTEIRDLQDQLSEMHDELDSAKRSEDREKGALIEELLQAKQDLQDLLIAKEEQEDLLRKRERELTALKGALKEEVSSHDQEMDKLKEQYDAELQALRESVEEATKNVEVLASRSNTSEQDQAGTEMRVKLLQEENEKLQGRSEELERRVAQLQRQIEDLKGDEAKAKETLKKYEGEIRQLEEALVHARKEEKEAVSARRALENELEAAQGNLSQTTQEQKQLSEKLKEESEQKEQLRRLKNEMENERWHLGKTIEKLQKEMADIVEASRTSTLELQNQLDEYKEKNRRELAEMQRQLKEKTLEAEKSRLTAMKMQDEMRLMEEELRDYQRAQDEALTKRQLLEQTLKDLEYELEAKSHLKDDRSRLVKQMEDKVSQLEMELEEERNNSDLLSERISRSREQMEQLRNELLQERAARQDLECDKISLERQNKDLKSRIIHLEGSYRSSKEGLVVQMEARIAELEDRLESEERDRANLQLSNRRLERKVKELVMQVDDEHLSLTDQKDQLSLRLKAMKRQVEEAEEEIDRLESSKKKLQRELEEQMDMNEHLQGQLNSMKKDLRLKKLPSKVLDDMDDDDDLSTDGGSLYEAPVSYTFSKDSTVASQI
Take B1: in assay [4], the binding result is “no binding”.

B2: full-length hCGN (CGN-FL-10xHis-2xStrep), purified (protein, UniProt Q9P2M7 1-1203)
chain: MEQAPNMAEPRGPVDHGVQIRFITEPVSGAEMGTLRRGGRRPAKDARASTYGVAVRVQGIAGQPFVVLNSGEKGGDSFGVQIKGANDQGASGALSSDLELPENPYSQVKGFPAPSQSSTSDEEPGAYWNGKLLRSHSQASLAGPGPVDPSNRSNSMLELAPKVASPGSTIDTAPLSSVDSLINKFDSQLGGQARGRTGRRTRMLPPEQRKRSKSLDSRLPRDTFEERERQSTNHWTSSTKYDNHVGTSKQPAQSQNLSPLSGFSRSRQTQDWVLQSFEEPRRSAQDPTMLQFKSTPDLLRDQQEAAPPGSVDHMKATIYGILREGSSESETSVRRKVSLVLEKMQPLVMVSSGSTKAVAGQGELTRKVEELQRKLDEEVKKRQKLEPSQVGLERQLEEKTEECSRLQELLERRKGEAQQSNKELQNMKRLLDQGEDLRHGLETQVMELQNKLKHVQGPEPAKEVLLKDLLETRELLEEVLEGKQRVEEQLRLRERELTALKGALKEEVASRDQEVEHVRQQYQRDTEQLRRSMQDATQDHAVLEAERQKMSALVRGLQRELEETSEETGHWQSMFQKNKEDLRATKQELLQLRMEKEEMEEELGEKIEVLQRELEQARASAGDTRQVEVLKKELLRTQEELKELQAERQSQEVAGRHRDRELEKQLAVLRVEADRGRELEEQNLQLQKTLQQLRQDCEEASKAKMVAEAEATVLGQRRAAVETTLRETQEENDEFRRRILGLEQQLKETRGLVDGGEAVEARLRDKLQRLEAEKQQLEEALNASQEEEGSLAAAKRALEARLEEAQRGLARLGQEQQTLNRALEEEGKQREVLRRGKAELEEQKRLLDRTVDRLNKELEKIGEDSKQALQQLQAQLEDYKEKARREVADAQRQAKDWASEAEKTSGGLSRLQDEIQRLRQALQASQAERDTARLDKELLAQRLQGLEQEAENKKRSQDDRARQLKGLEEKVSRLETELDEEKNTVELLTDRVNRGRDQVDQLRTELMQERSARQDLECDKISLERQNKDLKTRLASSEGFQKPSASLSQLESQNQLLQERLQAEEREKTVLQSTNRKLERKVKELSIQIEDERQHVNDQKDQLSLRVKALKRQVDEAEEEIERLDGLRKKAQREVEEQHEVNEQLQARIKSLEKDSWRKASRSAAESALKNEGLSSDEEFDSVYDPSSIASLLTESNLQTSSC
As to B2, the binding result in assay [4] is “no binding”; in assay [5] it was “binds weakly”; in assay [6], “binds weakly”.
